B1: tRNA (parent)
chain: CUCUCGGUAGCCAAGUUGGUUUAAGGCGCAAGACUUUAAUUUAUCACUACGAAAUCUUGAGAUCGGGCGUUCGACUCGCCCCCGGGAGAUUUUUUCCUCGAGCAA

Drawing on the RNAGym collection of RNA variant scans (doi:10.1101/gad.245936.114), this text covers nonsense suppression for 27 variants.

This sample is rich in variants without activity.

Variants of B1 are the subject of this data set. The data set is described as follows: nonsense suppression (GFP-seq) (ratio to wild type); higher = more function; SUP4oc tRNA, yeast GFP reporter sort-seq. The gist of the method:
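Each variant's nonsense suppression (GFPSEQ) is a cell-share-weighted bin median GFP/RFP relative to the unmutated parent tRNA. Yeast with genome-integrated tRNA variants from a ~3% random-mutation library, a galactose-driven GFP ochre reporter and RFP were grown in raffinose/galactose medium with 80 mg/L adenine, then sorted into GFP/RFP bins for Illumina sequencing. Variants needed ≥100 reads and ≥30 cells.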
For the variant CUCUCGGUAGCCAAGUUGGUUUAAGGCGCAAGACUUUAAUUUAUCACUACGAAAUCAUGAUAUCGGGCGUUCGACUCGCCCCCGGGAGAUUUUUUCCUCGAGCAA [U57A G61U], the nonsense suppression is no more than 0.026.

Turning to CUCUCGGUAGCCAAGUUGGUUUAUGGCGCAAGACUUUAAUUUAUCACUACGAAAUCUUGAGAUCGGGCGUUCGAUUCGCCUCCGGGAGAUUUUUUCCUCGAGCAA [A24U C75U C81U], the nonsense suppression was no more than 0.026. Consider CUCUCGGUAGACAAGUUGUUUUAAGGCGCAAGACUUUAAUUUAUCACUACGAAAUCUUGAGAUCGGGCGUUCGACUCACCCCCGGGAGGUUUUUUCCUCGAGCAA [C11A G19U G78A A89G], for which the nonsense suppression is no more than 0.026. Next, CUCUCGGUAGGCAAGUUGGUUUAAGGCGGAAGACUUUAAUUUAUCACUACGAAAUCUUGAGAUCGGGCGUUCGACUCGCCCCCGGGAGAUUUUUUCCUCGAGCAA [C11G C29G]: no more than 0.026. Turning to CUCUUGGUAGCCAAGUUGGUUUAAGGCGCAAGACUUUAAUUUAUCACUACGAAAGCUUGAGAUCGGGUGUUCGACUCGCCCCCGGGAGAUUUUUUCCUCGAGCAA [C5U U55G C68U], the nonsense suppression was no more than 0.026. Next, CUCUCGGUAGCCAAGUUGGUUUAAGGCGCAAGACUUUAAUUUAUCACUACGAAAUCUUGAGAUCGGGCCUUCGACUGGCCCCCGGGAGAUUUUUUCCUCGAGCAA [G69C C77G]: no more than 0.026; CUCUCGGUAGCCAAGUUGGUUUGAGGCGCAAGAAUUUAAUUUAUCACUACGAAAUCUUGAGAUCGGGCGUUCGACUCGCCCCCGGGAGAUUUUUUCCUCGAGCAA [A23G C34A]: no more than 0.026.

Regarding CUCUCGUUAGCCAAGUUGGUUUAAGGCGCAAGGCUUUAAUUUAUCACUACGAAAUCUUGAGAUCGGGCGUUCGACUCGCCCCCAGGAGAUUUUUUCCUCGAGCAA [G7U A33G G84A], the nonsense suppression was no more than 0.026.

Regarding CUCUCGGUAGCCAAGUUGGUUUAAGGCGCAAGAGUUUAAUUUAUCACUACGAAAUCUUGAGAUCGGGCGUCCGACUCGCCCCCGGAAGAUUUUUUCCUCGAGCAA [C34G U71C G86A], the nonsense suppression was no more than 0.026.

Consider CUUUCGGUCGCCAAGCUGAUUUAAGGCGCAAGACUUUAAUUUAUCACUACGAAAUCUUGAGAUCGGGCGUUCGACCUGCCCCCGGGAGAUUUUUUCCUCGAGCAA [C3U A9C U16C G19A U76C C77U], for which the nonsense suppression is no more than 0.026. Next, UUCUCGGUAGCCAAGUUGGUUUAAGGCGCAAGACUUUAAUUUAUCACUACGAAAUCUUGAGAUCGGGCGUUCAACUCGCCCCCGGGAGAUUUUUUCCUCGAGCAA [C1U G73A]: no more than 0.026; CUCUCGGUAGCCAAAUUGGUUUAAGGCGCAAGACUUUAAUUUAUCACUACGAAAUCUUGAGAUCGGGUGUUCGACUCGCCCCCGGGAGAUUUUUUCCUCGAGCAA [G15A C68U]: 0.0272. UACUCGGUAGCCAAGUUGGUUUAAGACGCAAGACUUUAAUUUAUCACUACGAAUUCUUGAGAUCGGGCGUUCGACUCGACCGCGGGAGAUUUUUUCCUCGAGCAA [C1U U2A G26A A54U C79A C82G]: the nonsense suppression is no more than 0.026. As for CUCUCGGUAGCCAAGUUGGUUACAGGCGCAAGACUUUAAUUUAUCACUACGAAACCUUGAGAUCGGGCGUUCGACUCACCCCCGGGAGAUUUUUUCCUCGAGCAA [U22A A23C U55C G78A], the nonsense suppression was no more than 0.026. With CUCUCGGUAGCCAAGUUGGUUUACGGCGCAAGACUUUAAUUUAUCACUACGAAAUCUUGAGAUCGGCCGUUCGACUCGCCCCCUGGAGAUUUUUUCCUCGAGCAA [A24C G67C G84U], the nonsense suppression is no more than 0.026.

CUCUCGGUAGCCAAGUUGGUUUAAGGCGCAACACUUUAAUUUAUCACUACGAAAUCGUGAGAUCGGGCGUUCGACUCGCCCCCGGGAGAUUUUUUCCUCGAGCAA [G32C U57G]: the nonsense suppression is no more than 0.026. Next, CUCUCGGUAGCCAAGUUGCUUUAAGGCGCAAGACUUUAAUUUAUCACUACGAAAUCUUGAGAUCGGGCGUUCGACUCGCCCCCGGGGGAUUUUUUCCUCGAGCAA [G19C A87G]: no more than 0.026. For CUCUCGGUAGCCAAAUUGGUUUAAGGCGCAAGACUUUAAUUUAUCACUACGAAAUCUUGAGAUCGGGCGUUCGACUCGCCAGCGGGAGAUUUUUUCCUCGAGCAA [G15A C81A C82G], the nonsense suppression was no more than 0.026. Next, CUCUCGGUAGCCAAGUUGGUUUAAGGCGCAAGACUUUAAUUUAUCACUACGAAAUCUUGAGAUCGGGAGUUCGACUCGCCCCCGGGAGCUUUUUUCCUCGAGCAA [C68A A89C]: no more than 0.026; CUCUCGGUAGCCAAGUUGGUUUAAGGCGCAAGACUUUAAUUUAUCACUACGAAAUCUUGAGAUCGGGCGAACGACUCGCCCCCGGGAGAUUUUUUCCUCGAGCAA [U70A U71A]: no more than 0.026. Next, CUCUCGGUAGCCAAGUUGGUUUUAGGCGCAAGACUUUAAUUUAUCACUACGAAAUCUUGAGAUCGGGCGUUAGACUCGCCCCCGGGAGAUUUUUUCCUCGAGCAA [A23U C72A]: no more than 0.026; CUCUCGGUAGACAAGUUGGUUUAAGGCGCAAGACUUUAAUUUAUCACUACGAAUUCUUGAGAUCGGGCGUUCGACUCGCCCCCGGGAGAUUUUUUCCUCGAGCAA [C11A A54U]: no more than 0.026. CUCUCGGUAGCCAAGUUGGUUUAAGGCGCAAGACUUUAAUUUAUCACUACGAAAUCUUGAAAUCGGGCGCUCGACUGGCCCCCGGGAGAUUUUUUCCUCGAGCAA [G61A U70C C77G]: the nonsense suppression was no more than 0.026.

As to CUCUUGCUAGCCAAGUUGGUUUAAGGCGCAAGACUUUAAUUUAUCACUACGAAAUCUUGACAUCGGGCGUUCGACUCGCCCCCGGGAGAUUUUUUCCUCGAGCAA [C5U G7C G61C], the nonsense suppression is no more than 0.026. Consider CUCUCGGUAGCCAAGUUGGUUUAAGGCGCAAGACUUUAAUUUAUCACUACGAAAUCUUGAGAGCCGGCGUUCGACUCGCCCCCGGGAGAUUUUUUCCUCGAGCAA [U63G G65C], for which the nonsense suppression was no more than 0.026. Next, CUCUCGGUAGCCAAGUUGGUUUAAGGCGCAAUACUUUAAUUUAUCACUACGAAAUCUUGAGAUCGGGCGUUCGACUCGCCCCCGGGAUAUUUUUUCCUCGAGCAA [G32U G88U]: no more than 0.026; CUGUCGGUAGCCAAGGUAGUUUAAGGCGCAAGACUUUAAUUUAUCACUACGAAGUCUUGAGAUCGGGCUUUCGACUCGCCCCCGGGAGAUUUUUUCCUCGAGCAA [C3G U16G G18A A54G G69U]: no more than 0.026.
